Results published in patent publication US12226490B2, “Anti-ROR1 antibody conjugates, compositions comprising anti ROR1 antibody conjugates, and methods of making and using anti-ROR1 antibody conjugates preliminary class” (Sutro Biopharma, Inc., priority 2022, dated 2025).

What was measured:
MDA-MB-231 tumor = assay: MDA-MB-231 TNBC xenograft model; format: in vivo, SCID/beige mice; settings: Example 20; day 42; any of the tested doses (2 mg/kg to 5 mg/kg qw×4)
Procedure: (§1) The activities of ROR1-targeted ADCs described herein were examined in a MDA-MB-231 TNBC xenograft model. Briefly, SCID/beige mice were implanted subcutaneously with 5×10^6 MDA-MB-231 tumor cells in the mammary fat pad and randomized and enrolled into the study 7 days post implant, with tumor sizes around 130 mm^3. Tumor-bearing mice were administered four weekly doses (qw×4) of the test articles at doses ranging from 2 mg/kg to 5 mg/kg. All treatments were well tolerated with normal body weight gain throughout the course of the study.
as §1, with “SCID/beige” for “The activities of ROR1-targeted ADCs described herein were examined in a MDA-MB-231 TNBC xenograft model. Briefly, SCID/beige”
as §1, with “SCID/beige” for “The activities of ROR1-targeted ADCs described herein were examined in a MDA-MB-231 TNBC xenograft model. Briefly, SCID/beige”, “three” for “four”, “(qw×3)” for “(qw×4)”, “study. […]” for “study.”

ROR1 negative MCF7 cells = assay: In vitro cell killing of ROR1 ADCs, ROR1 negative cells (Cell Titer-Glo, 120 hours); format: cell-based, human; settings: second Table 14
Description: Ntera-2, MDA-MB-231, MCF7, HCT116 and Mino cells were obtained from ATCC. HCT116-hRor1-D02 clone was generated by transfecting HCT116 cells with a plasmid containing human Ror1 cDNA sequence and selected for highest stable expression of hRor1 on the cell surface. MDA-MB-231, MCF7, HCT116 and HCT116-Ror1 cell were maintained in Ham's F-12 high glucose DMEM (50-50) (Cellgro-Mediatech; Manassas, VA) supplemented with 10% heat-inactivated fetal bovine serum (Hyclone; Thermo Scientific; Waltham, MA), 1% Penicillin/Streptomycin (Cellgro-Mediatech; Manassas, VA) and 2 mmol/L-glutamax (Life Technology; Carlsbad, CA). […]
Anti-ROR1 antibody was conjugated to different linker-warheads described herein at different DARs and the cell killing activity of the ADCs were evaluated on ROR1 positive Ntera-2 cell and ROR1 negative MCF7 cells.
Ntera-2 or MCF7 cell at 625 cells/25 μL were seeded in a 384-well flat bottom white polystyrene plate one day before the assay start. […] Relative luminescence was measured on an ENVISION® plate reader (Perkin-Elmer; Waltham, MA). Relative luminescence readings were converted to % viability using untreated cells as controls. […]

B1: Conjugate 1 (conjugate)
heavy: MEVQLVESGGGLVQPGGSLRLSCAASGFNISDYDIHWVRQAPGKGLEWVGGIDPADGSTDYADSVKGRFTISADTSKNTAYLQMNSLRAEDTAVYYCARDYGVYDYWGQGTLVTVSSASTKGPSVFPLAPSSKSTSGGTAALGCLVKDYFPEPVTVSWNSGALTSGVHTFPAVLQSSGLSLSSVVTVPSSSLGTQTYICNVNHKPSNTKVDKKVEPKSCDKTHTCPPCPAPELLGGPSVFLFPPKPKDTLMISRTPEVTCVVVDVSHEDPEVKFNWYVDGVEVHNAKTKPREEQYNSTYRVVSVLTVLHQDWLNGKEYKCKVSNKALPAPIEKTISKAKGQPREPQVYTLPPSREEMTKNQVSLTCLVKGFYPSDIAVEWESNGQPENNYKTTPPVLDSDGSFLYSKLTVDKSRWQQGNVFSCSVMHEALHNHYTQKSLSLSPGK
light: [about 200 residues cut from this listing]
TGI compared to the vehicle-treated group (MDA-MB-231 tumor): did not demonstrate significant TGI

B2: Conjugate 5 (conjugate)
heavy: MEVQLVESGGGLVQPGGSLRLSCAASGFNISDYDIHWVRQAPGKGLEWVGGIDPADGSTDYADSVKGRFTISADTSKNTAYLQMNSLRAEDTAVYYCARDYGVYDYWGQGTLVTVSSASTKGPSVFPLAPSSKSTSGGTAALGCLVKDYFPEPVTVSWNSGALTSGVHTFPAVLQSSGLYSLSSVVTVPSSSLGTQTYICNVNHKPSNTKVDKKVEPKSCDKTHTCPPCPAPELLGGPSVFLFPPKPKDTLMISRTPEVTCVVVDVSHEDPEVKFNWYVDGVEVHNAKTKPREEQYNSTYRVVSVLTVLHQDWLNGKEYKCKVSNKALPAPIEKTISKAKGQPREPQVYTLPPSREEMTKNQVSLTCLVKGFYPSDIAVEWESNGQPENNYKTTPPVLDSDGSFLYSKLTVDKSRWQQGNVFSCSVMHEALHNHYTQKSLSLSPGK
light: [about 200 residues cut from this listing]
MCF-7 Span (ROR1 negative MCF7 cells): <20%
